# From PubChem BioAssay AID588453 (National Center for Advancing Translational Sciences (NCATS), 2011)
# Among all 390,000 compounds or so, about 4,000 (1%) were called active. Inconclusive means that the source gave no clear call. Such entries were picked first, then a sample of the others. The call rests on the fitted dose curve; in most records, active means well fitted inhibition curve with a large enough effect; inconclusive means small, poorly fitted or top-dose-only effect; inactive means no such curve, though single readings can be large or run the other way. A potency beside an inconclusive call is a rough fit, not a confirmed value.
# Target: Thioredoxin reductase 1, cytoplasmic (Rattus norvegicus) (UniProt O89049)
# Assay: qHTS Assay for Inhibitors of Mammalian Selenoprotein Thioredoxin Reductase 1 (TrxR1): qHTS; further: nearly all actives have a fitted effect of over 65% in size
# Conditions: recombinant rTrxR1, NADPH fluorescence consumption, selenite substrate; series mostly up to 114 µM; activity change, negative = inhibition: at the top concentration
# Method in brief: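 Rat TrxR1 (90 nM in the dispensed reagent) was pre-reduced with 400 uM NADPH for 5 min at room temperature, then incubated with compound for 15 min. After 400 uM selenite was added, NADPH fluorescence (Ex 340/Em 450 nm) was followed for 8 min.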
# On the % scale 0 is the no-effect control and ±100 the full control effect; potency means the concentration at half of the fitted maximal effect; tags describe the fitted curve by direction and shape.
# Chain of UniProt O89049 (O89049 whole entry, looked up): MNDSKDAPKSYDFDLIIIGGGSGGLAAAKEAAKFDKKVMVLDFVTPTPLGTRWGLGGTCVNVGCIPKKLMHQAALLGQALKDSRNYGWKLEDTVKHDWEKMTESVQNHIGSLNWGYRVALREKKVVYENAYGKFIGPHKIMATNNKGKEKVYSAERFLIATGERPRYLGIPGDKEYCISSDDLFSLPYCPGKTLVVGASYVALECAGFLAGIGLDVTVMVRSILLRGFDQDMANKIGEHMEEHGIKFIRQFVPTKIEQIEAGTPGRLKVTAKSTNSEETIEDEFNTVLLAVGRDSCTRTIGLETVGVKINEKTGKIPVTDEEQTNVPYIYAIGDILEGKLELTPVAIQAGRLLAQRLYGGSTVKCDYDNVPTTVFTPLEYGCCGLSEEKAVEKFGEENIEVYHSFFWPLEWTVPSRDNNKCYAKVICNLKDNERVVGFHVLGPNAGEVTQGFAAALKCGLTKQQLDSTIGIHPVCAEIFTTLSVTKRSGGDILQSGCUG
Compound,Potency,"activity change, negative = inhibition"
c1coc(-c2nnc3sc(-c4cccs4)nn23)c1,"inconclusive: 17.8 µM [inhibitor, partial curve, poor fit]",
Fc1ccc(COc2cccc(-c3n[nH]c(=S)o3)c2)cc1,"inconclusive: 28.2 µM [inhibitor, partial curve]",
CSCCOC(=O)COc1ccc(/C=N/NC(=O)c2nn(C)cc2Cl)cc1,"inconclusive: 89.1 µM [inhibitor, partial curve, poor fit]",
Cc1ccn2c(NC3CCCCC3)c(-c3ccc(C)o3)nc2c1,,inactive: -14.2%
O=C(O)C1CCN(C(=O)c2cccc3ccccc23)CC1,,inactive: -6.87%
Cc1[nH]nc2c1C1(CCN(Cc3ccccc3)CC1)C(C#N)=C(N)O2,"inconclusive: 35.5 µM [inhibitor, single point]",
O=c1cc(-c2ccc(O)cc2)oc2c(O)c(O)c(O)c(O)c12,active: 15.8 µM,
C/C(=C\c1cc(C(=O)O)c(C)o1)CO,"inconclusive: 44.7 µM [inhibitor, partial curve]",
Cc1ccccc1NC(=S)NC(=O)c1cc(-c2ccccc2)nc2ccccc12,,inactive: -15%
Cc1ccc(-c2nn(-c3ccccc3)cc2C=O)o1,"inconclusive: 89.1 µM [inhibitor, single point]",
CCOC(=O)c1c(C)[nH]c(C(=O)COC(=O)c2ccccn2)c1C,"inconclusive: 11.2 µM [inhibitor, partial curve, poor fit]",
CCc1sc(C(=O)NCc2ccco2)cc1Br,"inconclusive: 56.2 µM [inhibitor, partial curve, poor fit]",
CCC(C)Nc1nc(Cl)nc(N(C#N)CN2C(=O)c3ccccc3S2(=O)=O)n1 (stereo not given),"inconclusive: 79.4 µM [inhibitor, partial curve, poor fit]",
S=C(NCc1ccco1)Nc1ccccc1,,inactive: 2.23% [at 57.1 µM]
O=C(NCc1cc2ccccc2[nH]1)C1CCC(=O)N(CCCN2CCCC2=O)C1 (stereo not given),"inconclusive: 89.1 µM [inhibitor, single point]",
CCN1CCN(C(c2ccc(C(F)(F)F)cc2)c2ccc3cccnc3c2O)CC1 (stereo not given),active: 3.55 µM,
O=C(CCS(=O)(=O)c1ccccc1)N(Cc1cccnc1)c1nc2c(Cl)cccc2s1,"inconclusive: 39.8 µM [inhibitor, partial curve, poor fit]",
O=C(NC(=S)Nc1ccc(C(=O)N2CCOCC2)cc1)c1ccc([N+](=O)[O-])cc1,"inconclusive: 15.8 µM [inhibitor, partial curve, poor fit]",
CCOC(=O)c1ccc(NC(=O)c2nc[nH]c2C(=O)NCCCCCNC(=O)OC(C)(C)C)cc1,,inactive: -9.46%
O=c1oc2cc(O)ccc2s1,,inactive: 41.4%
CC(=O)O[C@@H]1[C@@]2(C)O[C@H]2CC[C@]23O[C@H]2[C@H](OC3=O)C2=C(C)C(=O)O[C@@]21O,active: 50.1 µM,
O=C(CSc1nc2ccc(Cl)cc2[nH]1)N1CCN(C(=O)c2ccco2)CC1,active: 15.8 µM,
COc1ccc(C(=O)/C=C/c2cccc(OCc3ccccc3)c2)cc1CSCC(=O)O,"inconclusive: 70.8 µM [inhibitor, single point]",
COCCn1c(C)cc(O)c(C(c2ccccc2)N2CCN(CCO)CC2)c1=O (stereo not given),"inconclusive: 10 µM [inhibitor, partial curve]",

Compound,Potency,"activity change, negative = inhibition"
CCC/C=C1\CCCOC(C(=O)NCc2ccccc2)(C(F)(F)F)C1 (stereo not given),"inconclusive: 17.8 µM [inhibitor, partial curve]",
CCN1CCN(C(=O)CS(=O)Cc2nc(-c3cccc(C)c3)oc2C)CC1 (stereo not given),"inconclusive: 70.8 µM [inhibitor, single point]",
COc1cc(NC(=O)CC2C(=O)N(c3ccccc3)C(=O)N2Cc2ccc(F)cc2)cc(OC)c1 (stereo not given),,inactive: 13.9% [at 57.1 µM]
N#C/C(=C(/O)CCl)c1nc(-c2ccccc2)cs1,"inconclusive: 35.5 µM [inhibitor, partial curve, poor fit]",
C#CCOCCOCCOCCNc1nc(N2CCN(C(=O)[C@H](CCC(=O)O)n3cc(C(N)CO)nn3)CC2)nc(N2CCN(C(=O)[C@H](Cc3ccc(O)cc3)n3cc(C(N)[C@H](C)CC)nn3)CC2)n1 (stereo not given in full),"inconclusive: 25.1 µM [inhibitor, single point]",
CCOC(=O)C1=CN(Cc2ccco2)S(=O)(=O)NC1c1ccc(Br)cc1F (stereo not given),"inconclusive: 56.2 µM [inhibitor, partial curve]",
O=C(CCl)Nc1cccc(Oc2cnccn2)c1,"inconclusive: 70.8 µM [inhibitor, single point]",
S=c1[nH]cc(Cc2ccccc2)s1,"inconclusive: 2.51 µM [inhibitor, full curve]",
CC(C)(C)OC(=O)N1CCC(NC(=O)c2[nH]cnc2C(=O)Nc2ccon2)CC1,"inconclusive: 5.01 µM [inhibitor, full curve, poor fit]",
CCCS(=O)(=O)c1c(S(=O)(=O)CCC)c2c(C)cccn2c1C(=O)OC,active: 25.1 µM,
CC[n+]1c(/C=C(/C)SC)sc2ccccc21,"inconclusive: 70.8 µM [inhibitor, partial curve]",
CCOC(=O)c1ccc(CC(=O)c2oc3cc(O)ccc3c2C)o1,"inconclusive: 12.6 µM [inhibitor, full curve]",
CCOC(=O)c1ccc(NCCOC)c([N+](=O)[O-])c1,,inactive: 6.61% [at 57.1 µM]
O=C(Nc1ccccc1)OCC1CCCN2CCCCC12 (stereo not given),,inactive: 9.53%
CC(C)(C#CCN1CCCCC1)OCCOC(c1ccccc1)c1ccccc1,,inactive: 13.6% [at 57.1 µM]
CCCCN1CNC(=S)N(c2ccccc2OCC)C1,,inactive: -13.3%
O=C(CCS(=O)(=O)c1ccc(Br)cc1)Nc1cc(F)ccc1F,active: 35.5 µM,
COC(=O)C1=C(C)Nc2[nH]c(=S)[nH]c(=O)c2C1c1ccc(O)cc1 (stereo not given),"inconclusive: 28.2 µM [inhibitor, partial curve, poor fit]",
CC(=NNC(=S)N1CCC1)c1ccccn1,active: 7.08 µM,
CCOC(=O)[C@@H](C)N(C(=O)OC(C)(C)C)S(=O)(=O)N(Cc1ccccc1)[C@@H](C(=O)OC)C(C)C,,inactive: 14.2%
CCCCNC(=O)c1nn(C)c2c1CSc1ccccc1-2,,inactive: 5.92%
CCOC(=O)c1cc(C)sc1/N=C/C1=C(O)CCCC1=O,active: 20 µM,
CSCc1ccc(C(=O)OCc2nc3ccccc3s2)o1,"inconclusive: 79.4 µM [inhibitor, single point]",
Cc1nn(Cc2ccc(Cl)cc2Cl)c(C)c1NC(=O)CCl,"inconclusive: 35.5 µM [inhibitor, partial curve]",

Compound,Potency,"activity change, negative = inhibition"
Cc1c([N+](=O)[O-])c(C(=O)Sc2ccc(Br)cc2)nn1C,"inconclusive: 28.2 µM [inhibitor, single point]",
COc1cc(C)ccc1OCCSc1nc2ccc(NC(=O)c3ccco3)cc2s1,,inactive: 26.1%
COc1cccc2cc(C(=O)N3CCN(C(=O)c4ccccc4)CC3)c(=O)oc12,"inconclusive: 6.31 µM [inhibitor, single point]",
Cc1ccc(S(=O)(=O)Nc2cc(C)nn2-c2ccccc2)cc1,"inconclusive: 3.55 µM [inhibitor, single point]",
O=C(c1ccco1)N1CCN(C(=O)c2ccc(-c3ccc([N+](=O)[O-])cc3)o2)CC1,active: 7.08 µM,
C=CCNc1nc(C)c(CNc2c(C)cc(C)cc2C)nc1C#N,"inconclusive: 0.316 µM [inhibitor, full curve]",
Cc1cccc(N2C(=N)SCC2=O)c1C,"inconclusive: 79.4 µM [inhibitor, single point]",
CCC(C)(C)n1nnnc1C(c1cc2cc(C)cc(C)c2[nH]c1=O)N1CCN(C(=O)c2ccco2)CC1 (stereo not given),"inconclusive: 8.91 µM [inhibitor, full curve]",
CC(C)n1nc(C(=O)Nc2nc3ccccc3[nH]2)c2ccccc2c1=O,,inactive: 2.3%
O=C(NNC(=O)C1CCN(c2ncccn2)CC1)c1ccncc1,"inconclusive: 20 µM [inhibitor, partial curve, poor fit]",
CNC(=O)/C(C#N)=C1/SC(Cc2ccc(F)cc2)C(=O)N1c1ccccc1 (stereo not given),,inactive: 10.5%
CCN(CC)c1ncnc2c1cnn2-c1cc(Cl)ccc1C,,inactive: 24.9% [at 57.1 µM]
COc1cc(/C=C2\C(=O)N(CCC#N)N=C2C)ccc1OCC(=O)Nc1ccccc1,"inconclusive: 44.7 µM [inhibitor, partial curve]",
CCCn1c(N)c(C(c2ccc(OC)cc2)N2CCN(c3ccccc3)CC2)c(=O)[nH]c1=O (stereo not given),active: 10 µM,
O=C(NCCc1ccccc1)c1ccc(CS(=O)Cc2ccc(Cl)cc2)o1 (stereo not given),"inconclusive: 17.8 µM [inhibitor, full curve]",
COc1ccc(-c2c(C#N)c(SCC(=O)c3cc4ccccc4oc3=O)nc(C)c2C(=O)Nc2ccccc2)cc1,"inconclusive: 22.4 µM [inhibitor, partial curve, poor fit]",
COc1ccc(CCN(C)C(=O)COC(=O)/C=C/c2ccc(C)o2)cc1OC,active: 15.8 µM,
O=C(c1ccc(Cl)c(Cl)c1)N1CCN(Cc2ccc3c(c2)OCO3)CC1,"inconclusive: 14.1 µM [inhibitor, partial curve, poor fit]",
O=C(/C=C/c1ccco1)NC(=S)Nc1ccc(C(=O)O)cc1,active: 39.8 µM,
CCC(C)(C)n1nnnc1C(C(C)C)N(CCCO)Cc1cc2cc(C)ccc2[nH]c1=O (stereo not given),"inconclusive: 14.1 µM [inhibitor, partial curve]",
COc1cc2c(NC3CCN(C)CC3)nc(N3CCCN(C)CC3)nc2cc1OCCCN(C)C,"inconclusive: 50.1 µM [inhibitor, partial curve]",
O=C(C=Cc1cccs1)c1ccc(Cl)s1,"inconclusive: 79.4 µM [inhibitor, partial curve]",
